This note sets out measurements from paper PMC4336329 (PLoS ONE, 2015).

Screen size: about 310,000 compounds; about 2,200 (0.71%) showed an effect of 50% or more. Effects have a minus sign here. Some of the results follow.

The target of this assay is human ether-à-go-go-related gene (hERG) potassium channel (human, UniProt Q12809). Put plainly: primary screen, population patch clamp on CHO cells stably expressing hERG.
human ether-à-go-go-related gene (hERG) potassium channel, sequence (Q12809 whole entry, looked up): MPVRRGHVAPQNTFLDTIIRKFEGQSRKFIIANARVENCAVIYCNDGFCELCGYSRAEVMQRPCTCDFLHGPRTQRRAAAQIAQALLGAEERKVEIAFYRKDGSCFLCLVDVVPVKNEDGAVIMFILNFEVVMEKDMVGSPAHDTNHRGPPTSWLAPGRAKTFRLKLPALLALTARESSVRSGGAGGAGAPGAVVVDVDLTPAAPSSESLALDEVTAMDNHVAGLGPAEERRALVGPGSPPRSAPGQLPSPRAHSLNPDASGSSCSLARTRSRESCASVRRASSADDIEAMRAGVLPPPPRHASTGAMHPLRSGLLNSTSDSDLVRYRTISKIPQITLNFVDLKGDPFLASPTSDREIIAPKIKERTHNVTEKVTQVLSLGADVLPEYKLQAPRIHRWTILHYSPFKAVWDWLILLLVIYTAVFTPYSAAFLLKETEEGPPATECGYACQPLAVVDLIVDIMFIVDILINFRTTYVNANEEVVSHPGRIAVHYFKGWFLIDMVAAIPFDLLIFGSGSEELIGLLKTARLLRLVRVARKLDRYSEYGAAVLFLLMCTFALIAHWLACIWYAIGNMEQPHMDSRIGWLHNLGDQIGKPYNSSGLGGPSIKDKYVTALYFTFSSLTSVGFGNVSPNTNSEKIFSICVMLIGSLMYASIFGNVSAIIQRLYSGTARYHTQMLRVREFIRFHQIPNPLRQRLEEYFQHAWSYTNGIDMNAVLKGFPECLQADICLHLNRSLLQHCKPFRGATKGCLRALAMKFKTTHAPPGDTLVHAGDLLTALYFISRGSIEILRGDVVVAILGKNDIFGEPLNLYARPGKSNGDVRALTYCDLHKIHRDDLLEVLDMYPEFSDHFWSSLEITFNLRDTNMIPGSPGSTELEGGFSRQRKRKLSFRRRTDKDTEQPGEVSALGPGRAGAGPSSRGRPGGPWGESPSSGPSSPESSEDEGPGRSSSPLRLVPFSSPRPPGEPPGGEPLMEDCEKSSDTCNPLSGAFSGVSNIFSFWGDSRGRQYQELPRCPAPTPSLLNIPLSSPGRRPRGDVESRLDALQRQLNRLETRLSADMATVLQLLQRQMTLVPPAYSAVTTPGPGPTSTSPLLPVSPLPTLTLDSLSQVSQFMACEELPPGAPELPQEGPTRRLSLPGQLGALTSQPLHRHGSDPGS
Take `O=C(CSc1nc(-c2cccs2)cc(C(F)(F)F)n1)Nc1cc(OCC(F)(F)F)cc([N+](=O)[O-])c1`: the “hERG current change (%, negative = inhibition) at 1uM” value was found to be 18.9%.
Next, `Cl.O=C(c1ccco1)N1CCN(Cc2nnnn2CCc2ccccc2)CC1`: -5.12%.
Next, `CC(=O)N1N=C(c2cccs2)CC1c1ccc(Br)cc1` (stereo not drawn): 13%.
Next, `Cc1ccc(NC(=O)CSc2nc(=O)n3cc(C)ccc3n2)c(C)c1`: 4.38%; `COC(=O)c1cc(CSc2nnc(NC3CCCCC3)s2)oc1C`: 10.5%; `Cc1cc(OCC(=O)N2CCC(C(=O)O)CC2)c2c3c(c(=O)oc2c1)CCCC3`: -5.74%.
For the molecule `COc1ccccc1C(=O)NCC(=O)OCc1ccc(Br)cc1`, the “hERG current change (%, negative = inhibition) at 1uM” value is on record as 7.38%.
For `CC/C(=N\O)c1c(O)c2c(n(-c3ccccc3)c1=O)CCCC2`, the “hERG current change (%, negative = inhibition) at 1uM” value is listed as 8.93%.
Then `CCOc1ccccc1Nc1nc2ccccc2n1C(C)C`, with 11.5%.
Then `CN1CCN(C(=O)c2ccc(S(=O)(=O)Nc3ccccc3)cc2)CC1.Cl`, with -1.71%; and `Cc1ccc(NC(=O)CN2C(=O)CN=C(c3ccccc3)c3cc(Cl)ccc32)cc1`, with 9.95%; and `C/C(=N\NC(=O)c1cccnc1)c1cc(C)oc1C`, with 11.7%.
Next, `COc1ccc(CC(=O)N2CCC(Nc3nc4ccccc4n3Cc3ccc(F)cc3)CC2)cc1`: -36.8%; `COc1ccc2cc(C3CC(c4cccs4)=NN3C(C)=O)c(Cl)nc2c1` (stereo not drawn): 18.8%.
On to `COc1ccc(/C=C/C(=O)OCC(=O)Nc2c(C)cccc2C)cc1`, for which the “hERG current change (%, negative = inhibition) at 1uM” value is on record as -6.41%.
Then `O=C(O)C1CC(=O)N(CCOc2ccccc2)C1` (stereo not drawn), with 1.69%; and `CC[C@H](C)NC(=O)c1ccc(Cn2c(=S)[nH]c3c([nH]c4ccc(OC)cc43)c2=O)cc1`, with 0.348%.
Then `CC(=O)c1ccc(Oc2nc(-c3cccnc3)nc3ccccc23)cc1`, with 6.11%; and `CCC(C)N1CCN(S(=O)(=O)c2ccc(NC(C)=O)cc2)CC1` (stereo not drawn), with 0.454%; and `O=C(CCn1nc(-c2ccccc2)c2ccccc2c1=O)NCC1CCCO1` (stereo not drawn), with 6.89%.
As to `O=C(CN1C(=O)c2ccccc2S1(=O)=O)N1CCN(c2cccc(Cl)c2)CC1`, the “hERG current change (%, negative = inhibition) at 1uM” value was determined as 11.8%.
Then `CCCn1c(SCC(N)=O)nnc1-c1ccco1`, with 14.9%; and `CCOc1ccc(-c2c(C(=O)N/N=C/c3ccc(OC(C)C)cc3)nnn2-c2nonc2N)cc1`, with 13.7%.
Next, `CCOC(=O)N1CCN(S(=O)(=O)c2ccc(C(=O)Nc3sc4c(c3C(=O)OC)CCN(C)C4)cc2)CC1.Cl`: 11%.
Then `CCOc1cc(S(=O)(=O)N2CCN=C2Cc2ccccc2)ccc1F`, with -4.26%; and `CC(C)CCn1c(SCC(=O)c2ccccc2)nc2c1c(=O)[nH]c(=O)n2C`, with 10.8%.
`NC(Cc1cc(O)c(O)cc1O)C(=O)O` (stereo not drawn): the “hERG current change (%, negative = inhibition) at 1uM” value was found to be 7.7%.
For the molecule `COc1ccc(OC)c(-c2cc(C(=O)N3CCN(c4ncccn4)CC3)c3ccccc3n2)c1`, the “hERG current change (%, negative = inhibition) at 1uM” value worked out at 0.0778%.
In the case of `C/C=C(/C)C(=O)Nc1cccc(C2=NOC3(C2)C[C@@H](C(N)=O)N(C(=O)CC(c2ccccc2)c2ccccc2)C3)c1` (stereo partly drawn), the “hERG current change (%, negative = inhibition) at 1uM” value is listed as 9.03%.
Then `CC(C)c1ccc(CN2C(=O)c3ccccc3S2(=O)=O)cc1`, with 13%; and `COc1ccccc1S(=O)(=O)NCc1ccc(C(=O)N(C)Cc2ccc(F)cc2)cc1`, with 10.2%; and `CCOc1ccc(C2SCC(=O)N2c2c(C)n(C)n(-c3ccccc3)c2=O)cc1` (stereo not drawn), with 12.3%.
Then `CCOC(CNC(=O)Cn1nc(C)c2ccccc21)OCC`, with 8.42%; and `CCOC(=O)C1CCCN(C(=O)c2cc(-c3ccncc3)nc3ccccc23)C1` (stereo not drawn), with -8.26%.
Then `CCOC(=O)COc1cccc2c(=O)n(CC(=O)N3CCc4ccccc43)ccc12`, with 9.56%; and `O=C(c1cc([N+](=O)[O-])ccc1N1CCOCC1)N1CCN(S(=O)(=O)c2cc(Cl)ccc2Cl)CC1`, with 3.49%; and `Cl.Oc1ccc(CCNc2c3ccccc3nc3ccccc23)cc1O`, with -3.93%.
On to `CCN(Cc1ccccc1)c1ccc(N=Nc2nn(C)c(C)c2[N+](=O)[O-])cc1`, for which the “hERG current change (%, negative = inhibition) at 1uM” value amounted to 7.07%.
Then `Cc1ccccc1CN1CCN(C(=O)Cc2ccccc2)CC1.Cl`, with 18.6%; and `O=C(Cn1cnc([N+](=O)[O-])c1)NCCc1ccccc1`, with 2.82%.
Next, `NC(=O)NC(CC(=O)OCC(=O)NC(=O)NCc1ccco1)c1ccc(Cl)cc1` (stereo not drawn): 8.08%; `Cc1cc(=O)oc2c(C)c(OCC(=O)N3CCN(c4ccc(F)cc4)CC3)ccc12`: 2.34%.
